In all, about 310,000 compounds went through this assay and about 2,200 (0.71%) showed an effect of 50% or more. Effects have a minus sign here. This is one part of the list.
What follows are compounds tested against human ether-à-go-go-related gene (hERG) potassium channel (human, UniProt Q12809) (assay: primary screen, population patch clamp on CHO cells stably expressing hERG).
Sequence of human ether-à-go-go-related gene (hERG) potassium channel (Q12809 whole entry, looked up): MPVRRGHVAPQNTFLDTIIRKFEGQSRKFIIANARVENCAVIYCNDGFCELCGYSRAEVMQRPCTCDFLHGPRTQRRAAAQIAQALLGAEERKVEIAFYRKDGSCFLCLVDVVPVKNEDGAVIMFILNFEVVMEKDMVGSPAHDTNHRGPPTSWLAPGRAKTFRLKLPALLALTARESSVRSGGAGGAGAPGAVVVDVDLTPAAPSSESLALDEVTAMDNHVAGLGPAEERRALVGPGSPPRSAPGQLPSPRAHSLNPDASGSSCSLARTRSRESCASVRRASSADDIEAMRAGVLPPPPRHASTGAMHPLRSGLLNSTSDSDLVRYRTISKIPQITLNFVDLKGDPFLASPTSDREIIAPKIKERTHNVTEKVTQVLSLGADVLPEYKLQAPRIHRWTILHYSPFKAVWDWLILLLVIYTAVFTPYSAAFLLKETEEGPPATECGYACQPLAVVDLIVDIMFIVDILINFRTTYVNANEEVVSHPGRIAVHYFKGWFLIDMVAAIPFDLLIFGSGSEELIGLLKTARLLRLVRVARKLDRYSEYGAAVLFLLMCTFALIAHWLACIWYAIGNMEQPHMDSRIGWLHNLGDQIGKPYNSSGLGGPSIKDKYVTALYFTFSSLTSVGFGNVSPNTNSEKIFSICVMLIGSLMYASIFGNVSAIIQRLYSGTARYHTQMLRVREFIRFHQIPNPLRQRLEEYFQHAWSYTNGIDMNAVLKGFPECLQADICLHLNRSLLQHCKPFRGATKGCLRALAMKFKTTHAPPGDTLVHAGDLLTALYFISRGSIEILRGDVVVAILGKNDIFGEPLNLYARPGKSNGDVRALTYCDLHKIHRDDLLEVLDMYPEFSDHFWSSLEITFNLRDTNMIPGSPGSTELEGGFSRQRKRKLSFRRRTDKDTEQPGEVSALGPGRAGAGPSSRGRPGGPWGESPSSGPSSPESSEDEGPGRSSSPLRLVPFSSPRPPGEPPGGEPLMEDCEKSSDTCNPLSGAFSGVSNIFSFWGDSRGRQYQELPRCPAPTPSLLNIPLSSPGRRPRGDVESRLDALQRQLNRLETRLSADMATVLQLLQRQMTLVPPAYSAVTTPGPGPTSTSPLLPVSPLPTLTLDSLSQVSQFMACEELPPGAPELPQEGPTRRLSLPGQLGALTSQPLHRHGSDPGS

Going from `COc1ccc(/C=N/NC(=O)CCc2nc3ccccc3[nH]2)cc1` to `COc1ccc(C2=CC(=O)N(Nc3ccccc3)C2=O)cc1`, the “hERG current change (%, negative = inhibition) at 1uM” value rises from 4.33% to 29.7%.

Going from `CCOCCCNC(=O)c1ccc(OC2CCN(C(C)=O)CC2)c(OC)c1` to `CCOc1cc(C(=O)NCc2ccc(C)cc2)ccc1OCC(=O)N1CCOCC1`, the “hERG current change (%, negative = inhibition) at 1uM” value falls from 16.4% to 8.35%.

Going from `O=C1Nc2c(c(=O)[nH]c(=O)n2-c2ccccc2)C(C(F)(F)F)(C(F)(F)F)N1` to `O=C(OCc1cc2ccccc2[nH]c1=O)c1cccs1`, the “hERG current change (%, negative = inhibition) at 1uM” value rises from -1.46% to 22.2%.

Going from `CCOc1ccc(N2CC(C(=O)N3CCCCC3)CC2=O)cc1` (centres unmarked) to `CCOc1ccc(NC(=O)N2CC(C)OC(C)C2)cc1` (centres unmarked), the “hERG current change (%, negative = inhibition) at 1uM” value falls from 19.4% to 14.3%.

First: c1ccc(-c2ccc(-c3nc(-c4ccncc4)no3)cc2)cc1
Second: Cc1ccc(CSc2nnc(-c3ccncc3)o2)c(C)c1
The “hERG current change (%, negative = inhibition) at 1uM” value of the first is lower: 9.01% for the first, 17.8% for the second.

Compared with `Cc1cccc(CN2C(=O)c3ccccc3Sc3ccc(C(=O)NCCN4CCOCC4)cc32)c1`, `COc1cc(/C=N/NS(=O)(=O)c2ccc3ccccc3c2)ccc1OCCN1CCOCC1` is higher in “hERG current change (%, negative = inhibition) at 1uM” value: 1.75% for the first, 11.1% for the second.

Going from `C/C(=C\c1cccs1)C(=O)c1c(C)cc(C)[nH]c1=O` to `Cc1ccc2c(C(=O)CN3CCCCC3)c(C)[nH]c2c1`, the “hERG current change (%, negative = inhibition) at 1uM” value falls from 10.3% to 6.49%.

Compared with `Cc1ccc(CNC(=O)Cn2ccc3cc(S(=O)(=O)N4CCCC4)ccc32)o1`, `CCOC(=O)N1CCC(N2Cc3cccc(C(=O)NCc4ccc(C)cc4)c3C2=O)CC1` is lower in “hERG current change (%, negative = inhibition) at 1uM” value: 19.8% for the first, -18.8% for the second.

Going from `CCOC(=O)c1c(NC(=O)/C=C/C(=O)O)sc(C)c1-c1ccc(C)c(C)c1` to `Cc1ccc(N(CC(=O)NC2CCCCC2)C(=O)CNC(=O)c2ccco2)cc1C`, the “hERG current change (%, negative = inhibition) at 1uM” value falls from 19.9% to 2.81%.

Going from `COc1ccc(CN(C)C(=O)c2ccc(Oc3ccccc3)cc2)cc1F` to `COc1cn(-c2ccccc2)nc1C(=O)Nc1ccc(C)cc1`, the “hERG current change (%, negative = inhibition) at 1uM” value rises from 9% to 10.3%.

Compared with `COC(=O)c1cc(=O)n(Cc2ccc(F)cc2)c(=NCc2ccc(F)cc2)s1`, `Oc1c(N=Nc2ccc(F)cc2)ccc2ccccc12` is lower in “hERG current change (%, negative = inhibition) at 1uM” value: 14.1% for the first, 10.7% for the second.

Compared with `Cc1cccc(NC(=O)N(Cc2nc3ccccc3c(=O)[nH]2)C2CCCC2)c1`, `O=C(Nc1cccc(F)c1)c1sc(Cl)nc1-c1ccccc1` is lower in “hERG current change (%, negative = inhibition) at 1uM” value: 11.7% for the first, 5.72% for the second.

Compared with `CC1(C)CC(=O)C(CC2=C(N)CC(C)(C)CC2=O)=C(N)C1`, `CC12CC3(C)CC(C)(C1)CC(C(=O)NCc1cccnc1)(C2)C3` is lower in “hERG current change (%, negative = inhibition) at 1uM” value: 13.2% for the first, 8.6% for the second.

First: O=C(CSc1nnc(-c2ccccc2O)n1Cc1ccccc1)NNC(=O)c1ccccc1O
Second: CC(Oc1ccc2c(-c3ccccc3)cc(=O)oc2c1)C(=O)N[C@H](Cc1c[nH]c2ccccc12)C(=O)O (some centres unmarked)
The “hERG current change (%, negative = inhibition) at 1uM” value of the first is lower: 7.15% for the first, 13.4% for the second.

First: CCCN=C1NC(=O)C(CC(=O)NCCc2ccccc2)S1 (centres unmarked)
Second: CCNC(=O)N1CCC(n2nccc2NC(=O)CCCc2ccccc2)CC1
The “hERG current change (%, negative = inhibition) at 1uM” value of the first is lower: 5.76% for the first, 16.7% for the second.

Going from `COc1ccc(N(CC(=O)Nc2c(C)n(C)n(-c3ccccc3)c2=O)S(=O)(=O)c2ccc(C)cc2)cc1` to `CC(NC(=O)c1ccc2ccccc2n1)c1ccc(S(N)(=O)=O)cc1` (centres unmarked), the “hERG current change (%, negative = inhibition) at 1uM” value rises from -5.73% to 19%.

First: COC(=O)c1noc(C)c1-c1ccnn1C(=O)c1ccc(C)cc1
Second: COC(=O)c1ccc(CSc2nnc(CNC(=O)COc3ccc(Cl)cc3)o2)o1
The “hERG current change (%, negative = inhibition) at 1uM” value of the first is higher: 14.2% for the first, -8.23% for the second.

First: Cc1c(NC(=O)c2ccc3c(c2)C(=O)N(Cc2ccco2)C3=O)cccc1C(=O)O
Second: CCOc1ccc(Oc2ccccc2NC(=O)CSCC(=O)Nc2cc(C)on2)cc1
The “hERG current change (%, negative = inhibition) at 1uM” value of the first is lower: 9.81% for the first, 14.6% for the second.

Going from `N#Cc1ccccc1/C=C/C(=O)N1CCOCC1` to `Nc1nc(NCCN2CCOCC2)nc(NCc2ccccc2)c1[N+](=O)[O-]`, the “hERG current change (%, negative = inhibition) at 1uM” value falls from 16.7% to 2.83%.

First: CCN(CC)c1nc(SCCOC(=O)Nc2ccccc2)nc(N(CC)CC)n1
Second: Cc1ccccc1C(=O)NC(=S)Nc1ncccn1
The “hERG current change (%, negative = inhibition) at 1uM” value of the first is higher: 8.13% for the first, 7.98% for the second.

First: O=C(CSc1ncn[nH]1)N/N=C/c1ccc(F)cc1
Second: O=C(Nc1cccc(-c2nc3ccccc3s2)c1)c1cccs1
The “hERG current change (%, negative = inhibition) at 1uM” value of the first is higher: 16.2% for the first, 5.95% for the second.

Compared with `CC(=O)NC(CCS(C)(=O)=O)C(=O)Nc1cccc(C)c1C` (centres unmarked), `O=c1c(Cc2ccccc2)c(O)ccn1C1CCCCCCC1` is higher in “hERG current change (%, negative = inhibition) at 1uM” value: 2.45% for the first, 7.62% for the second.
